Counter-ions that a name gives are not always drawn. This is one part of the list.
tested on: Schistosoma mansoni schistosomula; assay: phenotypic hit in primary schistosomula screen (any phenotype vs DMSO control) (binary (1 = hit, 0 = no phenotype)); higher = active (phenotype induced); conditions: 1 µM; time (d): 7

SMILES	phenotypic hit
O=C(O)CCC(=O)Nc1ccc(S(=O)(=O)Nc2nccs2)cc1 [succinylsulfathiazole]	inactive: 0
CC(C)Cc1ccc(C(C)C(=O)O)cc1 (racemic) [(±)-Ibuprofen]	inactive: 0
COc1cnc(NS(=O)(=O)c2ccc(N)cc2)nc1 [sulfameter]	inactive: 0
CC(=O)c1cc2c(cc1O)OC(C)(C)C=C2 [eupatoriochromene]	inactive: 0
CCOC(=O)C1=C[C@]2(CC)CCCN3CCc4c(n1c1ccccc41)[C@@H]32 [vinpocetine]	inactive: 0
CC(=O)OCC(=O)[C@@]1(O)CC[C@H]2[C@@H]3C[C@H](C)C4=CC(=O)C=C[C@]4(C)[C@H]3[C@@H](O)C[C@@]21C [6alpha-methylprednisolone acetate]	inactive: 0
CC(=O)OC1CCC2(C)C3=C(CC[C@H]2C1(C)C)[C@@]1(C)CC[C@@H]([C@@H](C)CCC=C(C)C)[C@]1(C)CC3 (stereo partly specified) [euphol acetate]	inactive: 0
COc1ccc2c(c1)OCC(Cc1ccc(OC)c(OC(C)=O)c1)C2=O (stereo unspecified) [deoxysappanone b 7,3'-dimethyl ether acetate]	inactive: 0
CC(=O)O[C@H]1C[C@@H](OC(C)=O)C(C)(C)C2C[C@@H](O)[C@]3(C)C(CC[C@@]4(C)[C@H](c5ccoc5)OC(=O)[C@H]5O[C@]543)[C@]21C (stereo partly specified) [7-deacetylkhivorin]	inactive: 0
CC(CCC(=O)O)[C@H]1CCC2C3CC[C@@H]4CC(=O)CC[C@]4(C)C3C=C[C@@]21C (stereo partly specified) [chol-11-enic acid]	inactive: 0
OCCOCCN1CCN(C(c2ccccc2)c2ccc(Cl)cc2)CC1 (stereo unspecified) [hydroxyzine pamoate]	inactive: 0
CO[C@H]1[C@H](O)[C@@H](O)[C@H](O)[C@H](O)[C@H]1O [quebrachitol]	inactive: 0
Cc1ccccc1N1C(=O)c2cc(S(N)(=O)=O)c(Cl)cc2NC1C (stereo unspecified) [metolazone]	inactive: 0
CC(C)CCC[C@@H](C)[C@H]1CC[C@H]2[C@@H]3C(=O)C=C4C[C@@H](O)CC[C@]4(C)[C@H]3CC[C@]12C [7-oxocholesterol]	inactive: 0
COc1ccc(C(=O)c2ccc(O)cc2)c(O)c1O [2,3,4'-trihydroxy-4-methoxybenzophenone]	inactive: 0
COc1ccc(-c2coc3c(OC)c(OC)cc(O)c3c2=O)cc1 [isotectorigenin, 7-methyl ether]	inactive: 0
COC(=O)C(C)c1ccc(C(=O)c2cccs2)cc1 (stereo unspecified) [suprofen methyl ester]	inactive: 0
NCCCC(N)C(=O)O (stereo unspecified) [ornithine aketoglutarate]	inactive: 0
CCCCC(CC)CN=C(N)N=C(N)NCCCCCCNC(N)=NC(N)=NCC(CC)CCCC (stereo unspecified) [alexidine hydrochloride]	active: 1
CC(=O)Nc1ccc(O)cc1 [acetaminophen]	inactive: 0
CC(=O)Oc1c(C)c(C)c2c(c1C)CCC(C)(CCCC(C)CCCC(C)CCCC(C)C)O2 (stereo not drawn) [alpha-tochopheryl acetate]	inactive: 0
O=C(O)c1cc(O)c(=O)c2c(O)c(O)ccc2c1 [7-deshydroxypyrogallin-4-carboxylic acid]	inactive: 0

SMILES	phenotypic hit
COC(=O)[C@@H]1OC(=O)C2OC23[C@@]1(C)CCC1[C@]2(C)C(C[C@H](O)[C@]13C)C(C)(C)[C@H](OC(C)=O)C[C@@H]2OC(C)=O (stereo partly drawn) [7beta-hydroxy-7-desacetoxykhivorinic acid, methyl ester]	inactive: 0
C[C@H](C[C@@H](O)[C@@H]1OC1(C)C)[C@@H]1CC[C@]2(C)C3=CC[C@H]4C(C)(C)C(=O)CC[C@]4(C)[C@H]3CC[C@@]12C [niloticin]	inactive: 0
CC(=O)N[C@@H](Cc1ccccc1)C(=O)O [acetylphenylalanine]	inactive: 0
CCOC(=O)[C@H](CCc1ccccc1)N[C@@H](C)C(=O)N1CCC[C@H]1C(=O)O [enalapril maleate]	inactive: 0
Cn1nnnc1SCC1=C(C(=O)O)N2C(=O)[C@@H](NC(=O)[C@H](OC=O)c3ccccc3)[C@H]2SC1 [cefamandole nafate]	inactive: 0
COc1cc(O)c(C)c(O)c1 [2,6-dihydroxy-4-methoxytoluene]	inactive: 0
OCC(O)C(O)C(O)C(O)C(O)CO (stereo unspecified) [perseitol]	active: 1
C[C@H](CCC(=O)O)[C@H]1CC[C@H]2[C@@H]3CC[C@@H]4CCCC[C@]4(C)[C@H]3CC[C@]12C [ursocholanic acid]	inactive: 0
N=C(N)NC(=O)c1nc(Cl)c(N2CCCCCC2)nc1N [n,n-hexamethyleneamiloride]	inactive: 0
CC1=C(CC(=O)O)c2cc(F)ccc2/C1=C\c1ccc([S+](C)[O-])cc1 (stereo unspecified) [Sulindac]	inactive: 0
CCOc1ccc(C(=O)c2ccc(O)c(O)c2O)cc1 [2,3,4-trihydroxy-4'-ethoxybenzophenone]	inactive: 0
CN(C)CCCO[C@@H]1[C@H]2OC(C)(C)O[C@H]2O[C@@H]1[C@H](O)CO [amiprilose]	inactive: 0
C[C@]12CC[C@@H]3c4ccc(O)cc4CC[C@H]3[C@@H]1C[C@@H](O)[C@@H]2O [estriol]	inactive: 0
CO[C@H]1C=C[C@@]23c4cc5c(cc4CN(C[C@@H]2O)[C@H]3C1)OCO5 [crinamine]	inactive: 0
CCc1cccc2c3c([nH]c12)C(CC)(CC(=O)O)OCC3 (stereo unspecified) [etodolac]	inactive: 0
Cc1noc(NS(=O)(=O)c2ccc(N)cc2)c1C [sulfisoxazole]	inactive: 0
CN(C)[C@@H]1C(O)=C(C(N)=O)C(=O)[C@@]2(O)C(O)=C3C(=O)c4c(O)ccc(Cl)c4[C@@H](O)[C@H]3C[C@@H]12 [demeclocycline hydrochloride]	inactive: 0
CCCCCCCCCCCCCCCCCC(=O)OC(CC(=O)O)C[N+](C)(C)C (stereo unspecified) [stearoylcarnitine chloride]	inactive: 0
NC(N)=O [urea]	inactive: 0
Nc1nc2ncc(C(=O)O)nc2c(=O)[nH]1 [pterin-6-carboxylic acid]	inactive: 0
Cn1c([N+](=O)[O-])cnc1COC(N)=O [ronidazole]	inactive: 0
COC(=O)[C@@H]1OC(=O)C2OC23[C@@]1(C)CCC1[C@@]2(C)CCC(=O)C(C)(C)C2C[C@@H](OC(C)=O)[C@]13C (stereo partly specified) [dihydrogedunic acid, methyl ester]	inactive: 0

SMILES	phenotypic hit
N[C@@H](C(=O)N[C@@H]1C(=O)N2C(C(=O)O)=C(Cl)CS[C@H]12)c1ccccc1 [cefaclor]	inactive: 0
CC(Oc1ccccc1)C(=O)N[C@@H]1C(=O)N2[C@@H]1SC(C)(C)[C@@H]2C(=O)O (stereo partly specified) [phenethicillin potassium]	inactive: 0
O=C(O)c1cc(O)c2ccc(Cl)cc2n1 [7-Chlorokynurenic acid]	inactive: 0
C[C@@H]1CC[C@@]2(OC1)O[C@H]1C[C@H]3[C@@H]4CC[C@@H]5C[C@@H](O)CC[C@]5(C)[C@H]4CC[C@]3(C)[C@H]1[C@@H]2C [smilagenin]	active: 1
OC[C@H]1O[C@@H](O[C@@H]2[C@@H](CO)OC(O)(CO)[C@H]2O)[C@H](O)[C@@H](O)[C@H]1O (mixture of isomers) [lactulose]	inactive: 0
COC(=O)C[C@H]1C(C)(C)C(=O)[C@H]2CC3=C4CC(OC)O[C@@H](c5ccoc5)[C@@]4(C)CCC3[C@]1(C)C2=O (stereo partly specified) [16-deoxomexicanolide 16-methyl ether]	inactive: 0
Cc1cc(=O)c2c(O)c3c(cc2o1)OC(C)(C)CC3 [dihydrospatheliachromene]	inactive: 0
Cc1cc(O)c(C=O)c2c1C(=O)Oc1c(COC(=O)/C=C/C(=O)O)c(O)c(C(=O)O)c(C)c1O2 [fumarprotocetraric acid]	inactive: 0
CN(C)CCOC(=O)COc1ccc(Cl)cc1 [meclofenoxate hydrochloride]	inactive: 0
CC(=O)O[C@@H]1C[C@H]2C(C)(C)CCC(=O)[C@]2(C)[C@H]2CC[C@@]3(C)[C@H](c4ccoc4)OC(=O)[C@H]4O[C@]43[C@@]21C [2,3-dihydroisogedunin]	inactive: 0
O=C(OCc1ccccc1)c1ccccc1 [benzyl benzoate]	active: 1
OC(CCN1CCCCC1)(c1ccccc1)C1CCCCC1 (stereo unspecified) [Trihexyphenidyl hydrochloride]	inactive: 0
N=C(N)N/N=C/c1c(Cl)cccc1Cl [guanabenz acetate]	inactive: 0
CN(C)CC[C@@H](c1ccc(Cl)cc1)c1ccccn1 [chlorpheniramine (s) maleate]	inactive: 0
CN(CCOc1ccc(CC2SC(=O)NC2=O)cc1)c1ccccn1 (stereo unspecified) [rosiglitazone]	inactive: 0
Nc1cc(-c2ccncc2)c[nH]c1=O [amrinone]	inactive: 0
CC1(C)CC[C@]2(C(=O)O)[C@H](O)C[C@]3(C)C(=CC[C@@H]4[C@@]5(C)CC[C@H](O)C(C)(C)[C@@H]5CC[C@]43C)[C@H]2C1 [echinocystic acid]	inactive: 0
CC(=O)OC1CCC2(O)CC1(C)CCC1C2CC1(C)C (stereo unspecified) [senecrassidiol 6-acetate]	inactive: 0
COC(=O)C(N)CS (stereo unspecified) [mecysteine hydrochloride]	inactive: 0
CN1CC(=O)NC1=N [creatinine]	inactive: 0
NCCCCNCCCN [spermidine trihydrochloride]	inactive: 0
COC(=O)C[C@H]1C(C)(C)[C@@H](OC(C)=O)[C@]2(OC(C)=O)CC3=C4CC(=O)O[C@@H](c5ccoc5)[C@]4(C)CCC3[C@@]1(C)C2OC(C)=O (stereo partly specified) [2-dihydrofissinolide acetate]	inactive: 0
